Results reported in the BET-seq Pho4 binding data (Le et al. 2018).
This is one part of the list. These are noisy estimates, calculated here from bound and input reads.

target: T1, Pho4 (S. cerevisiae) (UniProt P07270); assay: relative binding free energy (BET-seq); higher = weaker binding; conditions: reference: library average
T1 sequence: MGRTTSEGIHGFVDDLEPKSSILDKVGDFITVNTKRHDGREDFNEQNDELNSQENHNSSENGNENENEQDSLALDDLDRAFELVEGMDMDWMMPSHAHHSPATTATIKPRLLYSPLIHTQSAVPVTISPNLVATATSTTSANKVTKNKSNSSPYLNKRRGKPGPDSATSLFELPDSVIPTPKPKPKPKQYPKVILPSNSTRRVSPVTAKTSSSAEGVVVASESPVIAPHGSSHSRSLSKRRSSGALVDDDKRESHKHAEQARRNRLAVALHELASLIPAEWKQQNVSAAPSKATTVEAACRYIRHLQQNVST

| Sequence | relative binding free energy [kcal/mol] |
| --- | --- |
| TGGATCACGTGTAAGA | 0.35 |
| GAGGTCACGTGCAGTT | 0.07 |
| ATCGACACGTGTGAGG | 0.16 |
| GATGGCACGTGGTAGG | -0.15 |
| TGCAACACGTGGGGAT | -0.05 |
| GTTTTCACGTGGGCGG | 0.28 |
| TTAGGCACGTGCTTGT | -0.11 |
| GTGGTCACGTGAGTTA | 0.25 |
| TAATGCACGTGAGTTT | 0.23 |
| GATTTCACGTGTTACG | 0.26 |
| TGAGGCACGTGTCGTA | -0.15 |
| TGAGACACGTGTAGTT | 0.09 |
| ATTGGCACGTGATAGT | 0 |
| ATCGTCACGTGTTGGT | 0.08 |
| TGTTCCACGTGAGTAG | 0.28 |
| TGTCACACGTGTAAGG | 0 |
| TATTACACGTGAGCGG | 0.19 |
| GTTGTCACGTGGCGAA | 0.09 |
| GGTTGCACGTGTTTTA | 0.19 |
| ATTGGCACGTGGTAGT | -0.12 |
| CCTGACACGTGGTGTG | -0.06 |
| CGGTACACGTGGGTGG | -0.1 |
| TCGGGCACGTGAATTT | 0.21 |

| Sequence | relative binding free energy [kcal/mol] |
| --- | --- |
| TTTGCCACGTGGGATG | 0.01 |
| TACAGCACGTGGTCGG | -0.13 |
| GTAGCCACGTGGTGCG | -0.05 |
| ATGTGCACGTGAGATG | 0.27 |
| CTGCGCACGTGTGTGT | -0.25 |
| AGTGACACGTGGGTAG | -0.23 |
| CGATTCACGTGGCTTT | 0.29 |
| GTAGTCACGTGTGGCA | 0.03 |
| ACATGCACGTGGAGGT | -0.02 |
| TGGACCACGTGTGTAT | -0.03 |
| GGTGTCACGTGTTACG | 0.14 |
| TAGTTCACGTGTGGGA | 0.43 |
| TGATGCACGTGGAGTT | 0.02 |
| TAGTGCACGTGGCGTA | -0.03 |
| GGCGTCACGTGGTGCG | 0.09 |
| GTAGTCACGTGTGTAC | 0.04 |
| TTAGTCACGTGCCTTT | 0.12 |
| ATGTTCACGTGTATCT | 0.19 |
| TGGTTCACGTGGAACT | 0.19 |
| GGATGCACGTGCGTGT | -0.06 |
| TTGTGCACGTGAGAGC | 0.32 |
| CTGTGCACGTGGGTAA | -0.15 |
| GCTATCACGTGTTTGT | 0.13 |

| Sequence | relative binding free energy [kcal/mol] |
| --- | --- |
| TGGAACACGTGTCGTT | -0.02 |
| GATTGCACGTGTCTTT | 0.28 |
| TTTAGCACGTGAGCGG | 0.12 |
| TTAGTCACGTGGGGAC | 0.04 |
| TAATTCACGTGAGAGA | 0.4 |
| TCGTGCACGTGCGAGG | -0.2 |
| GACGTCACGTGTTTTG | 0.24 |
| GTGGCCACGTGATTTA | 0.12 |
| GGTGTCACGTGGATCA | 0.19 |
| TGCTGCACGTGAAGGT | 0.13 |
| GTGAACACGTGTGGGT | 0.04 |
| TTAGTCACGTGGTATA | 0.05 |
| CGGGACACGTGTTAGT | 0.2 |
| TGGGGCACGTGTCAAG | -0.17 |
| TGCGTCACGTGAAGCG | 0.27 |
| ATGCGCACGTGTCGTG | -0.17 |
| TGTAACACGTGTCATT | 0.03 |
| GGCGGCACGTGTAGGG | -0.08 |
| GTAAACACGTGTTCGT | 0.12 |
| AAGCGCACGTGGGGTC | -0.23 |
| ATCAACACGTGGGGGG | -0.13 |
| AAGGTCACGTGTAGAA | 0.11 |
| ATAGGCACGTGGGGGA | -0.31 |

| Sequence | relative binding free energy [kcal/mol] |
| --- | --- |
| TGGGTCACGTGATGAC | 0.13 |
| TGTGGCACGTGTAAGG | 0.09 |
| ATTATCACGTGCTAGG | 0.13 |
| GGTGTCACGTGGCGGT | 0.09 |
| TTAATCACGTGTCTTT | 0.08 |
| AGCGTCACGTGCAGTG | 0.09 |
| ATTTTCACGTGGTTGA | 0.18 |
| TGGAACACGTGTTGGA | 0.05 |
| TGGAACACGTGGATGA | 0.14 |
| TGACGCACGTGGGTGC | -0.24 |
| TTAATCACGTGTGGGA | 0.28 |
| AACTTCACGTGGGTGG | 0.24 |
| AGGCGCACGTGGGATT | -0.16 |
| ATGCTCACGTGAGGCT | 0.48 |
| GTTGGCACGTGGACAT | 0.06 |
| GATATCACGTGGGAAT | 0.18 |
| GATGTCACGTGGGATC | 0.07 |
| GGGGACACGTGCGGGC | -0.03 |
| TGGTTCACGTGATAGC | 0.41 |
| TTGTACACGTGGTCTC | 0.04 |
| CATGTCACGTGTGGTA | 0.11 |
| GAGATCACGTGAGGTT | 0.47 |
| AAGGCCACGTGTGTGG | -0.05 |

| Sequence | relative binding free energy [kcal/mol] |
| --- | --- |
| GGGGCCACGTGCAGGA | -0.13 |
| GAAAGCACGTGTAGTG | -0.03 |
| TGGCACACGTGAGTGG | 0.24 |
| CTGCTCACGTGTATGG | 0.14 |
| GTCTACACGTGGGGGA | 0.15 |
| AGGATCACGTGGTATT | -0.05 |
| TCTATCACGTGGTATG | 0.07 |
| CAATGCACGTGTTTAG | 0.09 |
| CTGGTCACGTGTCGTA | 0.04 |
| AGTTTCACGTGGGGAG | 0.26 |
| TAGTGCACGTGCGTCG | -0.07 |
| ATTACCACGTGTAGTA | 0.09 |
| CTGAGCACGTGGTGCG | -0.09 |
| AGCAGCACGTGTTTGG | -0.24 |
| TTTTGCACGTGCGTAG | 0 |
| GTGCTCACGTGGCATG | 0.27 |
| TTGAGCACGTGGGTGC | -0.18 |
| ATTCGCACGTGATATG | 0.08 |
| AGGCGCACGTGTGAGG | -0.04 |
| GGTTGCACGTGGTGCT | -0.05 |
| TACTGCACGTGTGTCT | -0.01 |
| CGTTTCACGTGGATTT | 0.4 |
| AGAAGCACGTGTAGAG | 0.06 |
